Laboratory results from the supplement of paper PMC4466236.
In all, about 33,000 sequences were measured (“E-score (dimensionless, -0.5 to 0.5)”: median about -0.058, highest 2% from about 0.35 on). The list shows a part of the results.

system: MvaT; assay: PBM 8-mer E-score (mean of HK and ME arrays) (E-score (dimensionless, -0.5 to 0.5)); higher = stronger relative binding preference; most listed sequences are background and not binding sites
Method: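 Protein binding microarray: GST-tagged full-length MvaT (P. aeruginosa PAO1) bound to two universal double-stranded 60-mer arrays (ME and HK), each with a constant 25-mer primer and a variable 35-mer region covering all 8-mers. The 8-mer E-score (rank-based, range -0.5 to 0.5, >0.45 = specific binding) is the mean of the two arrays.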

| Sequence | PBM 8-mer E-score |
| --- | --- |
| AAAATTGT | 0.269 |
| CTATGCAG | -0.146 |
| GAGCAGCC | -0.309 |
| GTATGTCA | -0.0803 |
| TCTAAACA | 0.092 |
| CCTGCTAA | -0.131 |
| GCGCACCA | -0.225 |
| AGCCGTAA | 0.00828 |
| GAAGACCA | -0.15 |
| ATAAGAGC | 0.153 |
| GAGTAGAA | 0.0154 |
| CGGAAGGC | -0.301 |
| ACGCGGCC | -0.199 |
| ACTCTTCC | -0.212 |
| AACACTGG | 0.00512 |
| CGATGGAA | -0.0621 |
| ACAGCCAG | -0.127 |
| ATTCATCA | 0.202 |
| CAGCCCGA | -0.207 |
| ACGCAGCG | -0.238 |
| AGGTAGTA | 0.0553 |
| AGAAAGAC | 0.00959 |
| GAAATGCC | -0.0371 |
| GATTTCGA | -0.00454 |

| Sequence | PBM 8-mer E-score |
| --- | --- |
| CAGAACAG | 0.0213 |
| ACTAAGAG | 0.122 |
| AGTAATAA | 0.327 |
| AGCGGTGA | -0.0221 |
| CGCATGCA | -0.0411 |
| AGGCCGTA | -0.217 |
| AGGGGGTC | -0.293 |
| ATGGCCTA | -0.0414 |
| ATTAACGG | 0.219 |
| GTTGAGAA | -0.0233 |
| TCCCTGCA | -0.213 |
| GACGTGCC | -0.281 |
| GTACTGCA | 0.0657 |
| ACTGCTCT | -0.108 |
| GTGTCAGA | -0.0506 |
| GACCAATC | -0.113 |
| CCCGGGAG | -0.176 |
| GGACGTCC | -0.242 |
| CCCCAACC | -0.338 |
| CTACATCC | -0.0516 |
| CATAAGTC | -0.0483 |
| CAGTACAC | -0.0493 |
| AATAGTGC | 0.22 |
| AATTCGAG | -0.0357 |

| Sequence | PBM 8-mer E-score |
| --- | --- |
| GCACCGAA | -0.102 |
| CACTCAGC | -0.151 |
| CCATTTAA | 0.272 |
| ATCCTTGG | -0.116 |
| AGAAAAAA | 0.0527 |
| AAGTTGAG | 0.0659 |
| GGATTCGA | -0.0781 |
| AAGACTGT | 0.0403 |
| ACTTCTCG | 0.0602 |
| AACTCGTC | 0.0126 |
| CAGGTCGA | -0.187 |
| ACGAAACC | -0.0729 |
| AATTGCAC | 0.178 |
| AGTTCCAA | 0.128 |
| GTAAGACA | 0.159 |
| TATTTAAA | 0.433 |
| AATACCCA | 0.323 |
| AAACAAGG | 0.0768 |
| GGGACCGA | -0.255 |
| GGTATTAC | 0.209 |
| CGTACTGC | -0.058 |
| AGTCTAGG | -0.276 |
| CATTGGGG | -0.157 |
| CAGGGTTC | -0.251 |

| Sequence | PBM 8-mer E-score |
| --- | --- |
| ATCCATTC | -0.0391 |
| AAAGCGAA | 0.149 |
| AAGTGATG | 0.134 |
| AGTGTTGA | 0.0937 |
| AGGGGCAA | -0.204 |
| ACTGGCCG | -0.0768 |
| AGGATGTA | 0.125 |
| GAAAAATC | -0.104 |
| GACGTTTA | 0.00657 |
| CTGTCTAC | -0.108 |
| AACTCACC | -0.00356 |
| ACAATCTC | 0.028 |
| ATAGAAGC | -0.00456 |
| CGTAGAAC | -0.165 |
| GTTTGAGA | 0.0188 |
| CAGTACCG | -0.0734 |
| TAAGCAAA | 0.191 |
| GCAACGGA | -0.0564 |
| CGCGATGC | -0.0492 |
| CAGGACGC | -0.254 |
| TGTGTCAA | 0.0614 |
| CAAATATA | 0.433 |
